The structures appear in SMILES notation. Among all 150,000 compounds or so, about 540 (0.36%) showed an effect of 50% or more. This is one part of the list.

The text below walks through data of ChEMBL document CHEMBL4888484, “Replenishing the malaria drug discovery pipeline: Screening and hit evaluation of the MMV Hit Generation Library 1 (HGL1) against asexual blood stage Plasmodium falciparum ,using a nano luciferase reporter read-out” (2022).

The experiment concerns Plasmodium falciparum. Put plainly: Primary screen in NF54 nanoGlo assay, in single point, at 2uM, 72h; a lower Z score goes with more inhibition. It counts as functional, Erythrocyte. The settings on record: timepoint 72 hour.
As a reminder, the % Inhibition is the change of the read-out against control, counted positive when it falls. As to `COc1ccc(N(Cc2nnc(-c3ccco3)o2)C(C)C)cc1F`, the “% Inhibition” value is -14% and the Z score stood at 2.05.
Turning to `N#CCCN1CC(O)CC1C1CCCCC1` (stereo unspecified), the “% Inhibition” value was -7% and the Z score is 1.03.
Take `Cc1cccc(NC(=O)[C@H]2CCCN(c3nc4ccccc4[nH]3)C2)c1C`: the “% Inhibition” value was 11% and the Z score is reported as -1.92.
The like results for `COc1cccc(CNC(=O)c2sc(Nc3ccc(F)cn3)nc2C)c1` were, in that order, -5% and 0.96.
For `CC(C)NC(=O)[C@@H]1C[C@@H](N)CN1C(=O)Cc1c(Cl)cccc1Cl`, the “% Inhibition” value is -6% and the Z score is given as 1.11.
With `CCc1ccc(-n2nnc(-c3nnc(-c4ccco4)o3)c2C)cc1`, the “% Inhibition” value is given as -16% and the Z score amounted to 2.35.
Turning to `CCCCCOc1ccc(S(N)(=O)=O)cc1C(C)C`, the “% Inhibition” value is reported as -17% and the Z score was found to be 1.65.
On the same counts, the results for `CCn1nc(C)c(-c2ccc(C(=O)N3CCC4(CCO4)CC3)cc2)c1C` are 0% and 0.07.
On the same counts, the results for `CC(=O)c1c(C)[nH]c(C(=O)[C@H](C)Nc2ccc3c(c2)OC2(CCCCC2)O3)c1C` are -8% and 1.22.
On the same counts, the results for `CCC(C)C(C)(O)CNS(=O)(=O)c1ccc(F)cc1` (stereo unspecified) are -9% and 1.09.
`CC(C)(C)OC(=O)N1CCN[C@@H](CNC(=O)Nc2ccccn2)C1`: the “% Inhibition” value is given as 0% and the Z score is listed as 0.05.
In the case of `Cc1cc(C(F)(F)F)n(C[C@@H](C)CNC(=O)CNC(N)=O)n1`, the “% Inhibition” value came to 8% and the Z score was -1.32.
As for `CC(=O)N1CCCN(C(=O)c2ccc(-c3ccccc3)[nH]c2=O)CC1`, the “% Inhibition” value is on record as 2% and the Z score is -0.39.
On to `CC1C(Cc2ccccc2)CCN1C(=O)C1CCCN1` (stereo unspecified), for which the “% Inhibition” value is -5% and the Z score turned out to be 0.6.
As to `COc1cc(OC)nc(Oc2ccc(C(=O)NS(=O)(=O)C(C)C)c(Cl)c2)n1`, the “% Inhibition” value was -28% and the Z score stood at 3.24.
Take `COCCOc1ccc(NCc2cc(C#N)n(C)c2C)cn1`: the “% Inhibition” value was 9% and the Z score is -1.64.
Regarding `CC[C@H](C)[C@H](Nc1c(C#N)c(=O)n(C)c(=O)n1C)C(=O)OC(C)(C)C`, the “% Inhibition” value is listed as 0% and the Z score turned out to be 0.02.
As for `COC[C@H](C)OC(=O)c1cccc(C#N)c1`, the “% Inhibition” value is recorded as -8% and the Z score turned out to be 1.16.
On the same counts, the results for `Cc1ncsc1CCC(=O)N(C)Cc1n[nH]c2c1CCC2` are 7% and -0.89.
As for `Cc1cc(C(=O)N2CCOc3ccc(CN4CCOCC4)cc3C2)nn1C`, the “% Inhibition” value was -22% and the Z score is listed as 2.38.
Turning to `CC(=O)N1CC(NC(=O)[C@@H](C)Cc2ccc(Cl)cc2)C1`, the “% Inhibition” value is -5% and the Z score worked out at 0.76.
Turning to `CCN(CC)c1onc(-c2ccccc2)c1CN(CCCOC)C(=O)c1ccc(OC)cc1`, the “% Inhibition” value is listed as -25% and the Z score came to 2.38.
On to `COCCN(CC(=O)N(Cc1ccc(F)cc1)Cc1ccc(C)s1)C(=O)CC(C)(C)C`, for which the “% Inhibition” value is given as -12% and the Z score was 1.5.
The like results for `O=C(NCc1nc2ccccc2s1)[C@H]1CCC(=O)N(Cc2ccccn2)C1` were, in that order, -3% and 0.38.
In the case of `O=C(N[C@@H]1CN(Cc2ccc3cc[nH]c3c2)C[C@H]1CO)c1cccnc1`, the “% Inhibition” value was -10% and the Z score is given as 1.76.
Take `CC(OC(=O)CC1CCCO1)c1c(F)cccc1N1CCOCC1` (stereo unspecified): the “% Inhibition” value was -10% and the Z score stood at 1.29.
Turning to `Cc1cnc(CN[C@@H](C)c2cc(C)oc2C)o1`, the “% Inhibition” value is on record as 5% and the Z score is given as -0.67.
Turning to `CCCCC1CCC(c2nc(-c3ccncc3)no2)CC1` (stereo unspecified), the “% Inhibition” value is -6% and the Z score came out at 0.93.
Take `O=C(c1cccc(Br)c1)N1CCN(c2cc(N3CCCC3)ncn2)CC1`: the “% Inhibition” value was 1% and the Z score was -0.17.
Regarding `Cc1nc(O)nc(O)c1S(=O)(=O)N1CCC(C(=O)NC2CCCCCC2)CC1`, the “% Inhibition” value is on record as 3% and the Z score was -0.34.
Take `COc1ccc(Oc2ccc(CNC(=O)c3cc4cc(OC)ccc4nc3C)cn2)cc1`: the “% Inhibition” value is reported as 1% and the Z score is recorded as -0.2.
On the same counts, the results for `O=C(N[C@H]1CCN(c2ccc(Br)cc2)C1)C1(O)CCCC1` are -16% and 1.49.
In the case of `Cc1ccc(OCC(=O)N2CCCC[C@H]2C(=O)N2CCOCC2)cc1`, the “% Inhibition” value is 8% and the Z score is -1.05.
Take `N#CC1C(c2cccc(Br)c2)C(C(N)=O)C(=O)NC1(O)c1ccccc1` (stereo unspecified): the “% Inhibition” value is -5% and the Z score is listed as 0.91.
Regarding `Cc1ccsc1CN1CCc2nc(N3CCOCC3)ncc2C1`, the “% Inhibition” value is given as 3% and the Z score is given as -0.49.
On the same counts, the results for `Cc1scc(C(=O)Nc2cccc(S(=O)(=O)N3CCOCC3)c2)c1C` are -18% and 1.69.
On to `Cc1ccccc1NC1(CNc2ccc(C#N)nn2)CCCC1`, for which the “% Inhibition” value is given as 15% and the Z score is listed as -1.72.
`O=C(CCn1cnc2cc(-c3noc(CCC4CCCC4)n3)ccc21)N1CCCC1`: the “% Inhibition” value is -6% and the Z score came to 0.73.
Regarding `O=S(=O)(Nc1nc2ccccc2nc1Nc1cccc2ncccc12)c1ccc(Br)cc1`, the “% Inhibition” value was -12% and the Z score is on record as 1.51.
`c1ccc([C@@H]2CN(c3ncnc4c3CCNC4)CCO2)cc1`: the “% Inhibition” value is listed as -13% and the Z score was 1.72.
Consider `CCCS(=O)(=O)CCNC(C)(C)c1nccs1`, for which the “% Inhibition” value stood at 0% and the Z score amounted to 0.02.
Consider `CC1(Cc2nc(-c3cncc(Cl)c3)no2)CC1`, for which the “% Inhibition” value came out at 1% and the Z score is on record as -0.11.
Take `Cc1cccc(OC(C)C(=O)Nc2ccc([C@H]3C[C@@H]3C(=O)O)cc2)c1` (stereo partly specified): the “% Inhibition” value is given as -3% and the Z score is given as 0.47.
The like results for `CC(C)[C@H]1CN(C)CCN1C(=O)CC1(c2ccccc2F)CC(=O)N(CCN(C)C)C1=O` (stereo partly specified) were, in that order, -8% and 0.87.
`Cc1cnc(CN2CC(=O)NC[C@H]2c2ccccc2)cn1`: the “% Inhibition” value was -8% and the Z score was 0.91.
On to `CCn1nnc2ccc(-c3noc(-c4ccccn4)n3)cc21`, for which the “% Inhibition” value is -16% and the Z score turned out to be 2.68.
The like results for `O=C(Cn1cnnn1)N1CCn2c(cc3cc(Cl)ccc32)C1` were, in that order, 2% and -0.43.
On to `CN(C)[C@@H](CNC(=O)c1c(F)cccc1F)c1ccc2c(c1)CCO2`, for which the “% Inhibition” value was -5% and the Z score came out at 0.81.
The like results for `Cc1n[nH]c(C)c1NC(=O)Nc1cccc2c1CCN2C` were, in that order, 4% and -0.49.
Consider `CCc1ccc(CNC(=O)C2CCN(c3cnc(N4CCOCC4)nc3)CC2)cc1`, for which the “% Inhibition” value was -4% and the Z score is reported as 0.45.
`O=C(Nc1ccc2oc(-c3ccccc3Cl)nc2c1)c1nc[nH]n1`: the “% Inhibition” value is -10% and the Z score turned out to be 1.28.
With `Cc1oc2ccccc2c1CNC(=O)N1CCC(Nc2nccs2)CC1`, the “% Inhibition” value is on record as -2% and the Z score was found to be 0.33.
`COc1ccc(O[C@@H]2O[C@@H]3COC(C)(C)O[C@H]3[C@H](O)[C@H]2NC(C)=O)cc1`: the “% Inhibition” value was -14% and the Z score came to 1.8.
On to `O=C(NCCOc1ccccc1F)C1CC=CC1`, for which the “% Inhibition” value was 5% and the Z score is reported as -0.64.
For `CCc1nnc(CNC(=O)Cn2ccnc2)s1`, the “% Inhibition” value is given as -4% and the Z score stood at 0.77.
The like results for `COc1ccc([C@H]2OCC(C)(C)n3c(-c4ccc(Cl)cc4)c4c(=O)n(C)c(=O)n(C)c4c32)cc1` were, in that order, 10% and -1.82.
On to `O=C(NC1CCCCCCC1)c1nnc(-c2ccccc2)o1`, for which the “% Inhibition” value was -3% and the Z score worked out at 0.54.
For `O=C(c1ccccn1)N1CCc2cc(S(=O)(=O)N3CCOCC3)ccc21`, the “% Inhibition” value was -11% and the Z score came out at 1.82.
Turning to `CO[C@@H]1C[C@@H](CO)N(C(=O)c2cnc(C)nc2C)C1`, the “% Inhibition” value was -5% and the Z score came to 0.55.
The like results for `COc1cccc(N2CCN(C(=O)c3cn4cc(-c5cccc(F)c5)ccc4n3)CC2)c1` were, in that order, -4% and 0.64.
For `Cc1nn(-c2ccccn2)c2c1-c1nc(-c3ccncc3)ncc1CC2`, the “% Inhibition” value came to 1% and the Z score is on record as -0.13.
Regarding `O=C(c1n[nH]c2ccccc12)N1CCCn2nc(-c3ccncc3)cc2C1`, the “% Inhibition” value is listed as -22% and the Z score amounted to 4.07.
Consider `Cc1ccccc1NC(=O)COc1cc(C)c2c(-c3ccccc3)nn(-c3ccccc3)c2n1`, for which the “% Inhibition” value is -14% and the Z score is 1.99.
Turning to `CC(=O)N1CC[C@@]2(O)CCN(C/C(=C\CC(C)C)c3ccccc3)C[C@H]2C1`, the “% Inhibition” value was -5% and the Z score is reported as 0.88.
`CCN(CC)C(=O)c1ccc(COc2ccc3c(c2)[C@H](c2cccc(F)c2)N(C(=O)C(C)(C)C)CC3)o1`: the “% Inhibition” value is on record as -10% and the Z score is given as 1.23.
As for `Cc1ccc(-c2nc(C(=O)N3CC(O)CC3c3ccccc3)cs2)n1C` (stereo unspecified), the “% Inhibition” value came to 0% and the Z score was 0.05.
In the case of `Cn1ncc2c(=O)n(CC(=O)NCC3(N4CCOCC4)CCCCC3)nnc21`, the “% Inhibition” value is -6% and the Z score is 0.79.
The like results for `COc1ccc(N2CCN(c3ccc(NC(=O)C4CCCCC4)cc3C#N)CC2)cc1` were, in that order, 30% and -3.44.
As for `CCOCCN1CCN(C(=O)c2csnn2)CC1`, the “% Inhibition” value is -2% and the Z score stood at 0.27.
For the compound `Cc1nccn1[C@@H](C)C(=O)NC1(CO)CCCC1`, the “% Inhibition” value is 14% and the Z score was -1.92.
For the compound `c1ccn2cc(CCN[C@H]3CCc4cc5c(cc43)OCCO5)nc2c1`, the “% Inhibition” value is recorded as 11% and the Z score is reported as -1.69.
In the case of `CCCN1C[C@@H](Nc2nc(N)c3cnn(C)c3n2)CC1=O`, the “% Inhibition” value is -15% and the Z score is recorded as 1.64.
With `CCc1cc(NC(=O)N[C@@H](C)c2nc(C(F)(F)F)no2)n(C)n1`, the “% Inhibition” value is recorded as -7% and the Z score is reported as 1.
With `Cc1[nH]ccc1C(=O)N1CCC[C@H](Oc2ccccc2)C1`, the “% Inhibition” value was -16% and the Z score was determined as 2.9.
As to `COc1cccc(CNc2nnc3n2CCCCC3)c1`, the “% Inhibition” value is -27% and the Z score came to 3.22.
The like results for `CCN1C(=O)NC(C)(C2CCCN(Cc3ccc(C)cc3)C2)C1=O` (stereo unspecified) were, in that order, -7% and 1.12.
`Cc1ccsc1[C@H]1CCN(C(=O)c2ccc(C)c(F)c2F)C[C@@H]1O`: the “% Inhibition” value was found to be 4% and the Z score is given as -0.47.
Consider `COC(=O)C1=C(C(=O)OC)SC(=C2C(=S)C(C)(C)Nc3ccc(OC(=O)c4ccccc4)cc32)S1`, for which the “% Inhibition” value is on record as -7% and the Z score came to 0.83.
On to `CC(=O)N(CCC(C)C)Cc1c(-c2ccccc2F)noc1N1CCOCC1`, for which the “% Inhibition” value is given as -2% and the Z score was 0.25.
`Cc1c(NC(=O)Cc2ccc(Cl)cc2)c(=O)n(-c2ccccc2)n1C`: the “% Inhibition” value is -7% and the Z score is reported as 0.99.
`COc1cc(OC)cc([C@H]2CC(=O)Nc3c2cnn3Cc2ccco2)c1`: the “% Inhibition” value is listed as -15% and the Z score amounted to 1.93.
With `Cc1cc(C(=O)N[C@H]2CCC23CCOCC3)c(C)o1`, the “% Inhibition” value was determined as 7% and the Z score is listed as -0.9.
The like results for `O=C(N[C@H]1CCc2n[nH]c(=O)n2CC1)c1ccc2ccccc2n1` were, in that order, -9% and 1.43.
